Test results published in PMC4336329 (PLoS ONE, 2015).
The campaign covered roughly 310,000 compounds. About 2,200 (0.71%) showed an effect of 50% or more. The effect is printed as a negative number. This is one part of the list.

target: human ether-à-go-go-related gene (hERG) potassium channel (human, UniProt Q12809); assay: primary screen, population patch clamp on CHO cells stably expressing hERG
Sequence (Q12809 whole entry, looked up): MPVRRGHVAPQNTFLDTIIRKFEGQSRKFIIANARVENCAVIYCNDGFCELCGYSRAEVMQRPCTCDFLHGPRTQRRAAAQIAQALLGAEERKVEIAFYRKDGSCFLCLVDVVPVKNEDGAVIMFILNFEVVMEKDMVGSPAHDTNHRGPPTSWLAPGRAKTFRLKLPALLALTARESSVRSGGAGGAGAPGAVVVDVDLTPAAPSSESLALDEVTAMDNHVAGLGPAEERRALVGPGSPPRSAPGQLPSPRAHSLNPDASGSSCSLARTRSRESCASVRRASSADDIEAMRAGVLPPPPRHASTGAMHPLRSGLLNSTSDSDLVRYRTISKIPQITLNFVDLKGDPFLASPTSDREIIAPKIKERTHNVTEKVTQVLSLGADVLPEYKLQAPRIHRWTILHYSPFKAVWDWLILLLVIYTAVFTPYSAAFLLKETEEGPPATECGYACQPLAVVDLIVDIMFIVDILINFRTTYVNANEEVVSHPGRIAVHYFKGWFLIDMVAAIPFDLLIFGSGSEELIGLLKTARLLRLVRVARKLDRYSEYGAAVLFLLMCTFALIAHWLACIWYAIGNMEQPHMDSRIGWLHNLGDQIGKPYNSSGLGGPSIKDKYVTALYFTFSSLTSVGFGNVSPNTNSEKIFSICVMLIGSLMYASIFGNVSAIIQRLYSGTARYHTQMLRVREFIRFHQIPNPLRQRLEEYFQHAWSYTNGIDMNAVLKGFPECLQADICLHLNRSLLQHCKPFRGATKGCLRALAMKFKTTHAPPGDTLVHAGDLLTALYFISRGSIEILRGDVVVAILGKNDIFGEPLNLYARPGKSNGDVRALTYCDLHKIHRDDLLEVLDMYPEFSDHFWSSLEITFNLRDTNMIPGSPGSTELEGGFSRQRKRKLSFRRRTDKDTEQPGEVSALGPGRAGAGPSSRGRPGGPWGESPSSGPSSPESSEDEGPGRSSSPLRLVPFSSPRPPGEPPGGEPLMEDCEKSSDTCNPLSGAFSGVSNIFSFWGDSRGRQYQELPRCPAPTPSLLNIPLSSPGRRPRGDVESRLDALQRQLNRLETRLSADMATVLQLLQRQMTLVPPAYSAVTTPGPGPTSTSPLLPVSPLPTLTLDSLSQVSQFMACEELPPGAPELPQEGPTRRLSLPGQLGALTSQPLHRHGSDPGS

Point of comparison: `CCOC(=O)c1ccc(N2C(=O)C=C(N3CCOCC3)C2=O)cc1`, “hERG current change (%, negative = inhibition) at 1uM” value 11.5%. Against it:
- C/C(=N\NC(=O)CCC(=O)Nc1ccccc1)c1cccs1 — higher, 17%
- Cc1sc(NC(=O)CSc2nnc3scc(-c4ccccc4)n23)c(C#N)c1C — higher, 17.6%
- Cc1cccc(C)c1NC(=O)C(c1ccccc1)N1CCN(C(=O)c2ccco2)CC1 (stereo not drawn) — lower, 6.09%
- O=S(=O)(c1ccccc1)N1CCN2CCCC2C1 (stereo not drawn) — higher, 13.4%
- O=C(N/N=C/C=C/c1ccccc1)C1CC1(c1ccccc1)c1ccccc1 (stereo not drawn) — lower, -7.65%
- CN(C)c1ccc(NC(=O)CN2CCN(CC(=O)Nc3ccc(F)cc3)CC2)cc1 — lower, -61.1%
- O=C(NCc1cccc(Cl)c1)c1ccc2ccccc2n1 — lower, 6.65%
- O=C(OCCCc1ccncc1)c1ccc(S(=O)(=O)N2CCOCC2)cc1 — higher, 12.3%
- Cc1ccnc(NC(=O)c2ccc(Cl)c(NC(=O)CCc3ccccc3)c2)c1 — the same, 11.5%
- Br.O=C(CN1C2=NCCCN2c2ccccc21)c1ccc(Br)s1 — lower, -37%
- COc1ccc(C(=O)COC(=O)CCS(=O)(=O)c2ccc(C)cc2)c(OC)c1 — lower, -1.6%
- O=C(Nc1ccc(C(=O)N2CCOCC2)cc1)c1cnn2c(C(F)F)cc(-c3ccccc3)nc12 — lower, 6.5%
- O=C(O)COc1ccc2c3c(c(=O)oc2c1)CCCC3 — lower, 11.3%
- CCCCSCc1[nH]c(=O)[nH]c1C(=O)CCCCC(=O)OCC — lower, 4.21%
- CC(C)(C)Nc1nc(Cl)nc(Nc2ccccc2)n1 — lower, -1.81%
- COc1ccc(C2C(C#N)=C(N)N(N(C)C)C3=C2C(=O)CCC3)cc1 (stereo not drawn) — higher, 12.3%
- CCc1cccc(NC(=O)C2CCCN2S(=O)(=O)c2ccc3c(c2)n(C)c(=O)c(=O)n3C)c1 (stereo not drawn) — lower, -0.158%
- OC1(c2cccc(C(F)(F)F)c2)CCN(CCN2CCCCC2)CC1 — higher, 16.2%
- Cc1ccc(-c2ccc3nnc(SCC(N)=O)n3n2)cc1 — lower, 9.3%
- CCC(=O)c1ccc(OCC(=O)Nc2nc(-c3cccnc3)cs2)cc1 — lower, 6.31%
- Cc1c(OC(C)C(=O)NCC(O)c2ccccc2)ccc2c3c(c(=O)oc12)CCCC3 (stereo not drawn) — higher, 18.9%
- Cc1cc(OCC(=O)Nc2ccncc2)c(C)cc1Br — higher, 11.8%
- Cc1ccc(C)c(CN2CCCNC2=O)c1 — lower, 1.83%
- N#Cc1cc(-c2ccccc2)nnc1Oc1ccccc1 — lower, 8.8%
- COCCNC(=O)c1ccc(CSCc2cccc(Cl)c2)o1 — lower, 5.84%
- COc1ccc(N(CC(=O)NCc2ccc(Cl)cc2)S(=O)(=O)c2c(C)nn(C)c2C)cc1 — lower, 5.92%
- O=C(C(=O)N1CCOCC1)c1cn(CCCOc2ccccc2)c2ccccc12 — lower, 7.81%
- CC(C)Nc1nc2ccccc2c(=O)[nH]1 — higher, 13.5%
- N#Cc1c(-c2ccccc2)nc(N2CCOCC2)[nH]c1=O — lower, -0.575%
- CC(=O)Nc1ccc(C(=O)N2CC(=O)NC(=O)C2)cc1 — lower, 3.53%
- CC(C)(C)OC(=O)N1CCCN(C(=O)Nc2ccc(OC(F)(F)F)cc2)CC1 — lower, 7.78%
- CCS(=O)(=O)c1ccc(Sc2nncn2C)c([N+](=O)[O-])c1 — lower, 1.66%
- Cc1cc([N+](=O)[O-])c(NC2CCCCC2)c([N+](=O)[O-])c1 — lower, 8.74%
- CN(CC(=O)Nc1ccc(Cl)c(C(F)(F)F)c1)C(=O)Cc1cccs1 — lower, 3.05%
- Clc1ccc2nc3c4ccccc4cnn3c2c1 — lower, 9.79%
- COc1ccc(C)cc1NC(=S)N1CC(C)OC(C)C1 (stereo not drawn) — lower, 0.844%
- CN(C)CCn1c2c(c(SCC(=O)Nc3cccc4ccccc34)nc1=O)CCC2 — lower, 10.1%
- Cc1cc(-c2ccc(F)cc2)nc2cc(C(N)=O)nn12 — lower, 7.87%
- O=C(COc1ccc2ccc(=O)oc2c1)NCc1ccccn1 — higher, 12.9%
- COCc1cc(C)nc(SCC(=O)Nc2ccc3[nH]c(=O)[nH]c3c2)c1C#N — higher, 11.8%
- COc1ccc2[nH]c3c(=O)n(/N=C/[C@H]4C(C)C=C(C)CC4C)c(=O)[nH]c3c2c1 (stereo partly drawn) — higher, 13.4%
- Cc1nc2c(-c3ccccc3)c(C)nn2c(N)c1-c1ccccc1 — lower, -0.743%
- O=C(NC1CCCCCCC1)c1cnccn1 — lower, 6.27%
- CCc1ccccc1Nc1nn2c(=O)c3ccc(C(=O)NCc4ccccn4)cc3nc2s1 — lower, 7.39%
- Cc1ccc(CN(C(=O)COc2ccc(Br)cc2)C2CCS(=O)(=O)C2)o1 (stereo not drawn) — lower, -13.4%
- COc1ccc(C)cc1NC(=O)CCNS(=O)(=O)c1cccc2nonc12 — higher, 12.9%
- CC(C)(C)C(=O)Nc1ccccc1C(=O)Nc1cc(Cl)ccc1Cl — lower, 2.06%
- O=C(CNS(=O)(=O)c1ccccc1)NCC(=O)N1CCCCC1 — higher, 14.8%
- CCCNC(=O)COC(=O)c1ccccc1C(=O)N(C)C1CCCCC1 — higher, 12.7%
- O=C(c1cccc(S(=O)(=O)N2CCCC2)c1)N1CCN(c2ncccn2)CC1 — lower, 2.76%
- CCOc1ccc(NC(=O)N(CCN(C)C)C(C)c2cccnc2)cc1 (stereo not drawn) — higher, 12.5%
- Cc1ccc(S(=O)(=O)C2(C(=O)N3CCCC(C)C3)CC2)cc1 (stereo not drawn) — lower, 2.25%
- COC(=O)C1=C(c2ccc(F)cc2OCc2ccccc2)C[C@@H]2CC[C@H]1N2C(=O)NCCc1ccc(F)cc1 — higher, 13.3%
- C/C(=N/N1CCN(c2ccccn2)CC1)c1ccc([N+](=O)[O-])cc1 — lower, -8.58%
- c1ccc2c(c1)ccc1ncccc12 — lower, 0.593%
- Cc1cc(C)c(NC(=O)c2ccc3c(c2)NC(=O)C(C)S3)c(C)c1 (stereo not drawn) — lower, 2.78%
